# Inconclusive results, whose numbers are uncertain, are shown with a selection of clear calls. Where the call is inconclusive, the potency comes from a doubtful curve fit. The source made the active and inactive calls. The call rests on the fitted dose curve; in most records, active means well fitted curve in the direction sought with a large enough effect; inconclusive means small, poorly fitted or top-dose-only effect, or another doubt; inactive means no such curve, though single readings can be large; an effect the other way counts as inactive or inconclusive.
# Assays:
# [1] = BET inhibitor-based combinations targeting novel dependencies in MECOM-rearranged (r) AML: HNT-34 cell line (AID 2202234); further: nearly all actives have a fitted effect of over 35% in size
# In short: (§1)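 Cells were plated at 500 per well and exposed to each drug across an 11-point dose range for 48 hr at standard incubator conditions. Viability was read by CellTiter-Glo luminescence, and activity was expressed as AUC and per-cell-line Z-transformed AUC.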
# [2] = BET inhibitor-based combinations targeting novel dependencies in MECOM-rearranged (r) AML: UCSD-AML1 cell line (AID 2202235); conditions: UCSD-AML1 AML cells viability, CellTiter-Glo, 48 h; series mostly up to 46 µM; further: nearly all actives have a fitted effect of over 40% in size
# In short: as §1
# [3] = BET inhibitor-based combinations targeting novel dependencies in MECOM-rearranged (r) AML: AML-191 cell line (AID 2202236; further: nearly all actives have a fitted effect of over 35% in size)
# In short: (§2)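 500 cells/well; 11-pt dose curve; 48 h, standard incubator; CellTiter-Glo luminescence after 15 min RT; DMSO/empty-well normalization; AUC plus Z-AUC (mean-centered within each line).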
# [4] = BET inhibitor-based combinations targeting novel dependencies in MECOM-rearranged (r) AML: AML-194 cell line (AID 2202237; further: nearly all actives have a fitted effect of over 40% in size)
# In short: as §2
# Potency means the concentration at half of the fitted maximal effect; tags describe the fitted curve by direction and shape.
SMILES,Potency [1],Potency [2],Potency [3],Potency [4]
Nc1nc(=O)n([C@H]2C[C@H](O)[C@@H](CO)O2)cc1F,"inconclusive: 5.25 µM [inhibitor, partial curve]","inconclusive: 0.118 µM [inhibitor, full curve]",,
COc1nc(N)nc2c1ncn2C1OC(CO)C(O)C1O (stereo not drawn),"inconclusive: 18.6 µM [inhibitor, partial curve]","inconclusive: 5.9 µM [inhibitor, partial curve, poor fit]","inconclusive: 10.5 µM [inhibitor, partial curve]","inconclusive: 8.33 µM [inhibitor, full curve]"
O=C(Nc1ccc(Oc2ccnc3[nH]ccc23)c(F)c1)c1cccn(-c2ccc(F)cc2)c1=O,"inconclusive: 29.5 µM [inhibitor, single point]",,,
NC(=O)c1cccc2[nH]c(-c3ccc([C@H]4CCCN4)cc3F)nc12,"inconclusive: 16.6 µM [inhibitor, partial curve]",inactive,,"inconclusive: 26.3 µM [inhibitor, single point]"
N#CNC(=NCCCCCCOc1ccc(Cl)cc1)Nc1ccncc1,"inconclusive: 0.0186 µM [inhibitor, full curve, poor fit]","inconclusive: 0.0166 µM [inhibitor, full curve]",,"inconclusive: 20.9 µM [inhibitor, partial curve]"
CCCCCNC(=O)N1CCC(CN(Cc2ccc(Cl)cc2)Cc2ccc([N+](=O)[O-])s2)C1 (stereo not drawn),"inconclusive: 26.3 µM [inhibitor, single point]",,"inconclusive: 26.3 µM [inhibitor, single point]",
Nc1nc(N)c2nc(-c3cccc(Cl)c3)c(N)nc2n1,"inconclusive: 11.8 µM [inhibitor, single point]","inconclusive: 11.8 µM [inhibitor, single point]",,"inconclusive: 3.72 µM [inhibitor, partial curve, poor fit]"
C=C1C[C@@H]2CC[C@@]34C[C@H]5O[C@H]6[C@@H](O3)[C@H]3O[C@H](CC[C@@H]3O[C@H]6[C@H]5O4)CC(=O)C[C@@H]3[C@@H](OC)[C@@H](C[C@H](O)CN)O[C@H]3C[C@H]3O[C@@H](CC[C@@H]1O2)C[C@@H](C)C3=C,inconclusive: 0.001 µM [inhibitor],active: 0.0011 µM,active: 0.0015 µM,active: 0.0019 µM
CSc1ccc(C(=O)/C=C/c2cc(C)c(OC(C)(C)C(=O)O)c(C)c2)cc1,"inconclusive: 38.2 µM [inhibitor, partial curve]",inactive,"inconclusive: 30.3 µM [inhibitor, partial curve]","inconclusive: 76.2 µM [inhibitor, single point]"
CC(=O)OCC(=O)[C@@]12OC(C)(C)O[C@@H]1C[C@H]1[C@@H]3C[C@H](F)C4=CC(=O)C=C[C@]4(C)[C@@]3(F)[C@@H](O)C[C@@]12C,inactive,,inactive,
c1coc(CNc2ncnc3nc[nH]c23)c1,"inconclusive: 23.5 µM [inhibitor, partial curve]",,"inconclusive: 23.5 µM [inhibitor, partial curve, poor fit]",
C#C[C@]1(O)CC[C@H]2[C@@H]3CCc4cc(OC)ccc4[C@H]3CC[C@@]21C,inactive,,"inconclusive: 33.2 µM [inhibitor, single point]",
Cn1nccc1Nc1nccc(-c2ccn([C@H](CO)c3ccc(Cl)c(F)c3)c(=O)c2)n1,"inconclusive: 14.8 µM [inhibitor, partial curve]",,"inconclusive: 14.8 µM [inhibitor, partial curve, poor fit]","inconclusive: 18.6 µM [inhibitor, partial curve]"
CCCC[C@@H](C=O)NC(=O)[C@H](CC(C)C)NC(=O)OCc1ccccc1,"inconclusive: 16.6 µM [inhibitor, partial curve]",,"inconclusive: 37.2 µM [inhibitor, single point]",
Cc1ccc2c(c1)C(=O)[C@]1(O)CCN(c3ccccc3)C1=N2,"inconclusive: 18.6 µM [inhibitor, partial curve]",,active: 23.5 µM,active: 16.6 µM
Cc1ccc(C(C)(O)c2nc3ccccc3s2)c(C)c1 (stereo not drawn),"inconclusive: 29.5 µM [inhibitor, single point]",inactive,,inactive

# From PubChem BioAssay (NCATS)
